# Data reported in the supplement of paper PMC8728848.
# This is one part of the list.
# B1: SCA (Schizophyllum commune) (protein)
# chain: MGIDQGVYLITNAGSGTAATLKDGYVKGWERIKGKEQLNQLWFVKSVKTSASDPGYAAFNLATNKVLDLEKGLADRGTPILGWDYHEGDNQHWVIKKQADGKYYKIQSVKTQTFVDLNNGGKDNGTKIQGWVGSWDETNSHQRWVFNQFSATGSRIKSILDTHPKIHGKVIVEWPDRIYFTPDQYIFEAIWAKTGLADIKPRDPLFQSEAYEKVFKGWVVSRAQEIIKVDGFDILVGSLSLVEKSTQKIKVLDVSVRTSDDKSPDLSQIVFFDPESGRTLVDIPEGYEVNSVII
# Assays:
# Test in all cases: glycan array binding signal (z-score within array); higher = stronger binding
# Settings in all cases: glycan notation: IUPAC condensed, linker removed
# [1] = molecular target: Neu5Ac(a2-3)Gal(b1-3)[Fuc(a1-4)]GlcNAc(b1-3)Gal(b1-3)[Fuc(a1-4)]GlcNAc
# Outline: (§1)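 The binding signal is a Z-score computed within each array and averaged over linkers. Arrays of the same protein sequence at different concentrations or buffers were also averaged together. Data originate from 3228 arrays in the Consortium for Functional Glycomics database, kept only where the protein sequence was available.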
# [2] = molecular target: Neu5Ac(a2-3)Gal(b1-3)[Fuc(a1-4)]GlcNAc(b1-3)Gal(b1-4)[Fuc(a1-3)]GlcNAc
# Outline: as §1
# [3] = molecular target: Neu5Ac(a2-3)Gal(b1-3)[Neu5Ac(a2-3)Gal(b1-4)]GlcNAc
# Outline: as §1
# [4] = molecular target: Neu5Ac(a2-3)Gal(b1-3)[Neu5Ac(a2-6)]GalNAc
# Outline: as §1
# Neu5Ac(a2-3)Gal(b1-4)Glc = molecular target: Neu5Ac(a2-3)Gal(b1-4)Glc
# Outline: as §1
# [5] = molecular target: Neu5Ac(a2-3)Gal(b1-4)GlcNAc
# Outline: as §1
# [6] = molecular target: Neu5Ac(a2-3)Gal(b1-4)GlcNAc(b1-2)Man(a1-3)[GlcNAc(b1-2)Man(b1-4)GlcNAc(b1-2)Man(a1-6)]Man(b1-4)GlcNAc(b1-4)GlcNAc
# Outline: as §1
# [7] = molecular target: Neu5Ac(a2-3)Gal(b1-4)GlcNAc(b1-2)Man(a1-3)[Neu5Ac(a2-6)Gal(b1-4)GlcNAc(b1-2)Man(a1-6)]Man(b1-4)GlcNAc(b1-4)GlcNAc
# Outline: as §1
# [8] = molecular target: Neu5Ac(a2-3)Gal(b1-4)GlcNAc(b1-3)Gal
# Outline: as §1
# [9] = molecular target: Neu5Ac(a2-3)Gal(b1-4)GlcNAc(b1-3)Gal(b1-3)GlcNAc
# Outline: as §1
# [10] = molecular target: Neu5Ac(a2-3)Gal(b1-4)GlcNAc(b1-3)Gal(b1-4)GlcNAc
# Outline: as §1
# [11] = molecular target: Neu5Ac(a2-3)Gal(b1-4)GlcNAc(b1-3)Gal(b1-4)GlcNAc(b1-3)Gal(b1-4)GlcNAc
# Outline: as §1
# [12] = molecular target: Neu5Ac(a2-3)Gal(b1-4)GlcNAc(b1-3)Gal(b1-4)[Fuc(a1-3)]GlcNAc
# Outline: as §1
# [13] = molecular target: Neu5Ac(a2-3)Gal(b1-4)GlcNAc(b1-3)GalNAc
# Outline: as §1
# [14] = molecular target: Neu5Ac(a2-3)Gal(b1-4)GlcNAc(b1-6)[Gal(b1-3)]GalNAc
# Outline: as §1
# [15] = molecular target: Neu5Ac(a2-3)Gal(b1-4)GlcNAc(b1-6)[Neu5Ac(a2-3)Gal(b1-3)]GalNAc
# Outline: as §1
# [16] = molecular target: Neu5Ac(a2-3)Gal(b1-4)GlcNAc6S
# Outline: as §1
# [17] = molecular target: Neu5Ac(a2-3)Gal(b1-4)[Fuc(a1-3)]GlcNAc
# Outline: as §1
# [18] = molecular target: Neu5Ac(a2-3)Gal(b1-4)[Fuc(a1-3)]GlcNAc(b1-3)Gal
# Outline: as §1
# [19] = molecular target: Neu5Ac(a2-3)Gal(b1-4)[Fuc(a1-3)]GlcNAc(b1-3)Gal(b1-4)GlcNAc
# Outline: as §1
# [20] = molecular target: Neu5Ac(a2-3)Gal(b1-4)[Fuc(a1-3)]GlcNAc(b1-3)Gal(b1-4)[Fuc(a1-3)]GlcNAc(b1-3)Gal(b1-4)[Fuc(a1-3)]GlcNAc
# Outline: as §1
# [21] = molecular target: Neu5Ac(a2-3)Gal(b1-4)[Fuc(a1-3)]GlcNAc(b1-3)GalNAc
# Outline: as §1
# [22] = molecular target: Neu5Ac(a2-3)Gal(b1-4)[Fuc(a1-3)]GlcNAc(b1-6)[Gal(b1-3)]GalNAc
# Outline: as §1
# [23] = molecular target: Neu5Ac(a2-3)Gal(b1-4)[Fuc(a1-3)]GlcNAc6S
# Outline: as §1
# [24] = molecular target: Neu5Ac(a2-3)Gal6S(b1-4)GlcNAc
# Outline: as §1
# [25] = molecular target: Neu5Ac(a2-3)Gal6S(b1-4)[Fuc(a1-3)]GlcNAc
# Outline: as §1
# Neu5Ac(a2-3)GalNAc = molecular target: Neu5Ac(a2-3)GalNAc
# Outline: as §1
# [26] = molecular target: Neu5Ac(a2-3)GalNAc(b1-4)GlcNAc
# Outline: as §1
# [27] = molecular target: Neu5Ac(a2-3)[GalNAc(b1-4)]Gal(b1-4)Glc
# Outline: as §1
# [28] = molecular target: Neu5Ac(a2-3)[GalNAc(b1-4)]Gal(b1-4)GlcNAc
# Outline: as §1
# [29] = molecular target: Neu5Ac(a2-3)[GalNAc(b1-4)]Gal(b1-4)GlcNAc(b1-3)GalNAc
# Outline: as §1
# [30] = molecular target: Neu5Ac(a2-3)[Neu5Ac(a2-6)]GalNAc
# Outline: as §1
# Neu5Ac(a2-6)Gal = molecular target: Neu5Ac(a2-6)Gal
# Outline: as §1
# [31] = molecular target: Neu5Ac(a2-6)Gal(b1-3)GlcNAc(b1-3)[Gal(b1-4)GlcNAc(b1-6)]Gal(b1-4)Glc
# Outline: as §1
# Neu5Ac(a2-6)Gal(b1-4)Glc = molecular target: Neu5Ac(a2-6)Gal(b1-4)Glc
# Outline: as §1
# [32] = molecular target: Neu5Ac(a2-6)Gal(b1-4)GlcNAc
# Outline: as §1
# [33] = molecular target: Neu5Ac(a2-6)Gal(b1-4)GlcNAc(b1-2)Man(a1-3)Man(b1-4)GlcNAc(b1-4)GlcNAc
# Outline: as §1
# [34] = molecular target: Neu5Ac(a2-6)Gal(b1-4)GlcNAc(b1-2)Man(a1-3)[Gal(b1-4)GlcNAc(b1-2)Man(a1-6)]Man(b1-4)GlcNAc(b1-4)GlcNAc
# Outline: as §1
binder,measurement,setting,value
B1,glycan array binding signal (z-score),[1],-0.151
same,glycan array binding signal (z-score),[2],-0.16
same,glycan array binding signal (z-score),[3],-0.16
same,glycan array binding signal (z-score),[4],0.114
same,glycan array binding signal (z-score),Neu5Ac(a2-3)Gal(b1-4)Glc,-0.159
same,glycan array binding signal (z-score),[5],-0.157
same,glycan array binding signal (z-score),[6],-0.13
same,glycan array binding signal (z-score),[7],-0.162
same,glycan array binding signal (z-score),[8],-0.162
same,glycan array binding signal (z-score),[9],-0.157
same,glycan array binding signal (z-score),[10],-0.16
same,glycan array binding signal (z-score),[11],-0.152
same,glycan array binding signal (z-score),[12],-0.164
same,glycan array binding signal (z-score),[13],-0.157
same,glycan array binding signal (z-score),[14],-0.162
same,glycan array binding signal (z-score),[15],-0.157
same,glycan array binding signal (z-score),[16],-0.161
same,glycan array binding signal (z-score),[17],-0.163
same,glycan array binding signal (z-score),[18],-0.164
same,glycan array binding signal (z-score),[19],-0.159
same,glycan array binding signal (z-score),[20],-0.154
same,glycan array binding signal (z-score),[21],-0.15
same,glycan array binding signal (z-score),[22],-0.159
same,glycan array binding signal (z-score),[23],-0.158
same,glycan array binding signal (z-score),[24],-0.157
same,glycan array binding signal (z-score),[25],-0.162
same,glycan array binding signal (z-score),Neu5Ac(a2-3)GalNAc,-0.16
same,glycan array binding signal (z-score),[26],-0.162
same,glycan array binding signal (z-score),[27],-0.156
same,glycan array binding signal (z-score),[28],-0.162
same,glycan array binding signal (z-score),[29],-0.161
same,glycan array binding signal (z-score),[30],-0.159
same,glycan array binding signal (z-score),Neu5Ac(a2-6)Gal,-0.163
same,glycan array binding signal (z-score),[31],-0.158
same,glycan array binding signal (z-score),Neu5Ac(a2-6)Gal(b1-4)Glc,-0.161
same,glycan array binding signal (z-score),[32],-0.162
same,glycan array binding signal (z-score),[33],-0.162
same,glycan array binding signal (z-score),[34],-0.161
